# Whole data set: some 2,900 compounds, median “NF-kB SEAP reporter activity, fold change vs agonist alone” near 0.99, cut for the highest 2% near 2.6. This is one part of the list.
# Experiments:
# RAW-Dual [1] = assay: NF-kB SEAP reporter activity, fold change vs agonist alone; higher = enhanced NF-kB activity; conditions: library stock concentration (final ~1000-fold dilution): 10 mM
# How it was run: (§1)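 Supernatant from RAW-Dual macrophages was read after 20 hours for IRF by QuantiLuc luminescence and for NF-κB by QuantiBlue absorbance at 620 nm. The cells (50,000 cells/well in DMEM, 384-well plates, 37 °C, 5% CO2) had received 50 nL of library stock by pin tool and, 1 h later, a PRR agonist. Reporter activity is expressed relative to agonist-alone wells as fold change, and wells were flagged cytotoxic if IncuCyte confluency was under 70% of agonist controls in both mask sets.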
# RAW-Dual [2] = assay: NF-kB SEAP reporter activity, fold change vs agonist alone; cytotoxicity flag (confluency mask): not cytotoxic; higher = enhanced NF-kB activity
# How it was run: as §1
# RAW-Dual [3] = assay: NF-kB SEAP reporter activity, fold change vs agonist alone; cytotoxicity flag (confluency mask): cytotoxic (confluency <70% of control); higher = enhanced NF-kB activity
# How it was run: as §1
# [4] = cytotoxicity flag (confluency mask): not cytotoxic, agonist: Imiquimod (TLR7) […]
# [5] = cytotoxicity flag (confluency mask): not cytotoxic, agonist: MPLA (TLR4) […]
# [6] = agonist: ODN 1826 (TLR9) 0.5 ug/mL
# [7] = agonist: Pam2CSK4 (TLR2/6) 0.1 ug/mL
# [8] = agonist: Pam3CSK4 (TLR2/1) 0.1 ug/mL
smiles,measurement,setting,value
Br.Cc1ccc(-c2cn3c4c(sc3n2)CCCC4)cc1,NF-kB SEAP reporter activity,RAW-Dual [1]; [4],0.894
same,NF-kB SEAP reporter activity,RAW-Dual [1]; [5],1.11
Br.Cc1ccc(-c2cn3c4c(sc3n2)CCCC4)cc1 (library stock concentration (final ~1000-fold dilution): 10 mM),NF-kB SEAP reporter activity,RAW-Dual [2]; agonist: LPS (TLR4) 0.1 ug/mL,1.2
same,NF-kB SEAP reporter activity,RAW-Dual [2]; [6],0.852
same,NF-kB SEAP reporter activity,RAW-Dual [2]; [7],0.993
same,NF-kB SEAP reporter activity,RAW-Dual [2]; [8],0.801
Nc1ccc(C(=O)Nc2cccc(-c3nc(N4CCOCC4)c4oc5ncccc5c4n3)c2)cn1 (library stock concentration (final ~1000-fold dilution): 10 mM),NF-kB SEAP reporter activity,RAW-Dual [2]; agonist: LPS (TLR4) 0.1 ug/mL,2.62
CN(C)CCCN1c2ccccc2Sc2ccc(Cl)cc21 (library stock concentration (final ~1000-fold dilution): 10 mM),NF-kB SEAP reporter activity,RAW-Dual [2]; agonist: LPS (TLR4) 0.1 ug/mL,1.12
same,NF-kB SEAP reporter activity,RAW-Dual [2]; [6],0.55
same,NF-kB SEAP reporter activity,RAW-Dual [2]; [7],0.813
same,NF-kB SEAP reporter activity,RAW-Dual [2]; [8],0.58
CN(C)CCCN1c2ccccc2Sc2ccc(Cl)cc21,NF-kB SEAP reporter activity,RAW-Dual [1]; [4],2.1
same,NF-kB SEAP reporter activity,RAW-Dual [1]; [5],1.75
C/C=C(/C)C(=O)OC1c2c(ccc3ccc(=O)oc23)OC(C)(C)C1OC(=O)/C(C)=C\C (stereo not drawn) (library stock concentration (final ~1000-fold dilution): 10 mM),NF-kB SEAP reporter activity,RAW-Dual [2]; agonist: LPS (TLR4) 0.1 ug/mL,0.566
same,NF-kB SEAP reporter activity,RAW-Dual [2]; [6],1.04
same,NF-kB SEAP reporter activity,RAW-Dual [2]; [7],0.715
same,NF-kB SEAP reporter activity,RAW-Dual [2]; [8],1.02
C/C=C(/C)C(=O)OC1c2c(ccc3ccc(=O)oc23)OC(C)(C)C1OC(=O)/C(C)=C\C (stereo not drawn),NF-kB SEAP reporter activity,RAW-Dual [1]; [4],1.01
same,NF-kB SEAP reporter activity,RAW-Dual [1]; [5],1.03
C[C@@H]1O[C@@H](O[C@H]2C(=O)c3c(O)cc(O)cc3O[C@@H]2c2ccc(O)cc2)[C@H](O)[C@H](O)[C@H]1O,NF-kB SEAP reporter activity,RAW-Dual [1]; [4],0.949
same,NF-kB SEAP reporter activity,RAW-Dual [1]; [5],0.95
C[C@@H]1O[C@@H](O[C@H]2C(=O)c3c(O)cc(O)cc3O[C@@H]2c2ccc(O)cc2)[C@H](O)[C@H](O)[C@H]1O (library stock concentration (final ~1000-fold dilution): 10 mM),NF-kB SEAP reporter activity,RAW-Dual [2]; agonist: LPS (TLR4) 0.1 ug/mL,1.24
same,NF-kB SEAP reporter activity,RAW-Dual [2]; [6],0.943
same,NF-kB SEAP reporter activity,RAW-Dual [2]; [7],1.05
same,NF-kB SEAP reporter activity,RAW-Dual [2]; [8],1.14
O=C1NC(=O)/C(=C/c2ccc3c(c2)OC(F)(F)O3)S1,NF-kB SEAP reporter activity,RAW-Dual [1]; [4],0.418
same,NF-kB SEAP reporter activity,RAW-Dual [1]; [5],0.455
O=C1NC(=O)/C(=C/c2ccc3c(c2)OC(F)(F)O3)S1 (library stock concentration (final ~1000-fold dilution): 10 mM),NF-kB SEAP reporter activity,RAW-Dual [2]; agonist: LPS (TLR4) 0.1 ug/mL,0.268
same,NF-kB SEAP reporter activity,RAW-Dual [2]; [6],0.361
same,NF-kB SEAP reporter activity,RAW-Dual [2]; [7],0.13
same,NF-kB SEAP reporter activity,RAW-Dual [2]; [8],0.313
CNC1(C)C2CCC(C2)C1(C)C.Cl (stereo not drawn),NF-kB SEAP reporter activity,RAW-Dual [1]; [4],0.927
same,NF-kB SEAP reporter activity,RAW-Dual [1]; [5],1.05
CNC1(C)C2CCC(C2)C1(C)C.Cl (stereo not drawn) (library stock concentration (final ~1000-fold dilution): 10 mM),NF-kB SEAP reporter activity,RAW-Dual [2]; agonist: LPS (TLR4) 0.1 ug/mL,1.09
same,NF-kB SEAP reporter activity,RAW-Dual [2]; [6],0.915
same,NF-kB SEAP reporter activity,RAW-Dual [2]; [7],1.08
same,NF-kB SEAP reporter activity,RAW-Dual [2]; [8],1.42
CC(C)c1ccc2c(c1)c(SC(C)(C)C)c(CC(C)(C)C(=O)O)n2Cc1ccc(Cl)cc1 (library stock concentration (final ~1000-fold dilution): 10 mM),NF-kB SEAP reporter activity,RAW-Dual [2]; agonist: LPS (TLR4) 0.1 ug/mL,1.2
same,NF-kB SEAP reporter activity,RAW-Dual [2]; [6],0.371
same,NF-kB SEAP reporter activity,RAW-Dual [2]; [7],0.135
same,NF-kB SEAP reporter activity,RAW-Dual [2]; [8],0.269
CC(C)c1ccc2c(c1)c(SC(C)(C)C)c(CC(C)(C)C(=O)O)n2Cc1ccc(Cl)cc1,NF-kB SEAP reporter activity,RAW-Dual [1]; [4],0.498
same,NF-kB SEAP reporter activity,RAW-Dual [1]; [5],0.793
Cn1cc(-c2cc(Oc3cc(F)c(NC(=O)C4(C(=O)Nc5ccccc5)CC4)cc3F)ccn2)cn1,NF-kB SEAP reporter activity,RAW-Dual [1]; [4],0.974
same,NF-kB SEAP reporter activity,RAW-Dual [1]; [5],1.71
Cn1cc(-c2cc(Oc3cc(F)c(NC(=O)C4(C(=O)Nc5ccccc5)CC4)cc3F)ccn2)cn1 (library stock concentration (final ~1000-fold dilution): 10 mM),NF-kB SEAP reporter activity,RAW-Dual [2]; agonist: LPS (TLR4) 0.1 ug/mL,3.09
same,NF-kB SEAP reporter activity,RAW-Dual [2]; [6],0.863
same,NF-kB SEAP reporter activity,RAW-Dual [2]; [7],0.629
same,NF-kB SEAP reporter activity,RAW-Dual [2]; [8],0.98
Cc1nc(Nc2ncc(C(=O)Nc3c(C)cccc3Cl)s2)cc(N2CCN(CCO)CC2)n1 (library stock concentration (final ~1000-fold dilution): 10 mM),NF-kB SEAP reporter activity,RAW-Dual [3]; agonist: LPS (TLR4) 0.1 ug/mL,0.704
same,NF-kB SEAP reporter activity,RAW-Dual [3]; [6],0.653
same,NF-kB SEAP reporter activity,RAW-Dual [3]; [7],0.256
same,NF-kB SEAP reporter activity,RAW-Dual [3]; [8],0.319
Cc1nc(Nc2ncc(C(=O)Nc3c(C)cccc3Cl)s2)cc(N2CCN(CCO)CC2)n1,NF-kB SEAP reporter activity,"RAW-Dual [1]; cytotoxicity flag (confluency mask): cytotoxic (confluency <70% of control), agonist: Imiquimod (TLR7) […]",0.405
same,NF-kB SEAP reporter activity,"RAW-Dual [1]; cytotoxicity flag (confluency mask): cytotoxic (confluency <70% of control), agonist: MPLA (TLR4) […]",0.8
COc1cc(N2CCC(N3CCN(C)CC3)CC2)ccc1Nc1ncnc(Nc2ccccc2S(=O)(=O)C(C)C)n1 (library stock concentration (final ~1000-fold dilution): 10 mM),NF-kB SEAP reporter activity,RAW-Dual [2]; agonist: LPS (TLR4) 0.1 ug/mL,5.53
COc1ccc(CC2c3cc(OC)c(OC)cc3CC[N+]2(C)CCC(=O)OCCCCCOC(=O)CC[N+]2(C)CCc3cc(OC)c(OC)cc3C2Cc2ccc(OC)c(OC)c2)cc1OC (stereo not drawn),NF-kB SEAP reporter activity,RAW-Dual [1]; [4],1.05
same,NF-kB SEAP reporter activity,RAW-Dual [1]; [5],0.871
COc1ccc(CC2c3cc(OC)c(OC)cc3CC[N+]2(C)CCC(=O)OCCCCCOC(=O)CC[N+]2(C)CCc3cc(OC)c(OC)cc3C2Cc2ccc(OC)c(OC)c2)cc1OC (stereo not drawn) (library stock concentration (final ~1000-fold dilution): 10 mM),NF-kB SEAP reporter activity,RAW-Dual [2]; agonist: LPS (TLR4) 0.1 ug/mL,0.558
same,NF-kB SEAP reporter activity,RAW-Dual [2]; [6],0.627
same,NF-kB SEAP reporter activity,RAW-Dual [2]; [7],0.545
same,NF-kB SEAP reporter activity,RAW-Dual [2]; [8],0.686
CC(C(=O)O)c1ccc2c(c1)CC(=O)c1ccccc1S2 (stereo not drawn),NF-kB SEAP reporter activity,RAW-Dual [1]; [4],0.939
same,NF-kB SEAP reporter activity,RAW-Dual [1]; [5],0.989
CC(C(=O)O)c1ccc2c(c1)CC(=O)c1ccccc1S2 (stereo not drawn) (library stock concentration (final ~1000-fold dilution): 10 mM),NF-kB SEAP reporter activity,RAW-Dual [2]; agonist: LPS (TLR4) 0.1 ug/mL,1.44
same,NF-kB SEAP reporter activity,RAW-Dual [2]; [6],1.02
same,NF-kB SEAP reporter activity,RAW-Dual [2]; [7],1.26
same,NF-kB SEAP reporter activity,RAW-Dual [2]; [8],1.28
